Data published in ChEMBL document CHEMBL4888484, “Replenishing the malaria drug discovery pipeline: Screening and hit evaluation of the MMV Hit Generation Library 1 (HGL1) against asexual blood stage Plasmodium falciparum ,using a nano luciferase reporter read-out” (2022).
Out of some 150,000 compounds screened, about 540 (0.36%) showed an effect of 50% or more. Some of the results follow.

System: Plasmodium falciparum
Assay: Primary screen in NF54 nanoGlo assay, in single point, at 2uM, 72h; a lower Z score goes with more inhibition
Type: functional, Erythrocyte
Conditions: timepoint 72 hour

Q: `CC1CN2c3ccccc3CC3(C(=O)N(c4ccccc4)C(=O)N=C3O)C2C(C)O1` (stereo unspecified) was tested. Which “% Inhibition” value did it give?
A: The value was 6%.

Q: And the Z score?
A: Its Z score is -0.72.

Q: What does the source list for `O=C(N[C@@H](CO)C(=O)Nc1nc(-c2ccccc2)cs1)Oc1ccccc1`?
A: % Inhibition: -21%; Z score: 2.48

Q: Which results are given for `c1ccc(-c2noc(CN3C[C@H]4CC[C@H]3C4)n2)nc1`?
A: % Inhibition: -19%; Z score: 1.65

Q: How did the “% Inhibition” value turn out when `Cc1cc(C)c(S(=O)(=O)N(C(=O)Oc2ccccc2)c2ccc(OC(=O)Oc3ccccc3)cc2)c(C)c1` was run?
A: The value was -3%.

Q: What about the Z score of the same compound?
A: Its Z score is 0.35.

Q: With `Cc1ccc(CC(=O)N2C[C@H]3CC[C@@H](C2)N(C)C3)cc1` as the compound, how does the “% Inhibition” value read?
A: The value was -22%.

Q: What about the Z score of the same compound?
A: Its Z score is 2.4.

Q: `CNc1ncc(CN(C)c2cc([C@H]3CCOC3)ncn2)cn1` was tested. Which “% Inhibition” value did it give?
A: Its value is -15%.

Q: What about the Z score of the same compound?
A: Its Z score is 2.76.

Q: Which results are given for `CCN(CC)C(=O)Oc1ccc2c(ccn2Cc2ccc(F)cc2)c1NC(=O)c1cc(Cl)cc(Cl)c1`?
A: % Inhibition: 3%; Z score: -0.24

Q: Which results are given for `Cc1ccccc1CC(=O)N1CCN(Cc2ncc[nH]2)C[C@H](O)C1`?
A: % Inhibition: -3%; Z score: 0.58

Q: `O=C(Cc1ccccc1)N1C[C@@H]2CC[C@H]1CN(Cc1ccncc1)C2` was tested. Which “% Inhibition” value did it give?
A: Its value is 12%.

Q: What about the Z score of the same compound?
A: The Z score was -1.74.

Q: `COC(=O)c1cc(OC)cc2[nH]c(=O)oc12` was tested. Which “% Inhibition” value did it give?
A: Its value is 32%.

Q: And the Z score?
A: The Z score was -4.13.

Q: How did the “% Inhibition” value turn out when `O=C(Cc1ccc(O)c(F)c1)N1C[C@H]2c3ccccc3OC[C@@]2(C(=O)O)C1` was run?
A: The value was -2%.

Q: And the Z score?
A: The Z score was 0.24.

Q: What does the source list for `N#Cc1ccc(S(=O)(=O)N2C3CCC2c2cncnc2C3)cc1` (stereo unspecified)?
A: % Inhibition: -16%; Z score: 2.1

Q: For `CCC[C@H](C)C1(CC)C(=O)NC(=Nc2ccccc2)NC1=O` (stereo partly specified), which “% Inhibition” value is on record?
A: The value was -28%.

Q: And the Z score?
A: Its Z score is 3.28.

Q: What does the source list for `CCC(=O)Nc1ccc(C)c(NC(=O)C2(c3ccccc3)CCN(C)CC2)c1`?
A: % Inhibition: -9%; Z score: 1.09

Q: Which results are given for `O=C1CCCN1c1cccc(N[C@H]2CN3CCC2CC3)c1`?
A: % Inhibition: -5%; Z score: 0.84

Q: Which results are given for `CN(CCc1cc(Cl)cc(Cl)c1)CC1CC(O)C1` (stereo unspecified)?
A: % Inhibition: 6%; Z score: -0.6

Q: What does the source list for `CC(C)C(NCc1cn2cccnc2n1)C(O)c1ccccc1` (stereo unspecified)?
A: % Inhibition: -3%; Z score: 0.45

Q: Which “% Inhibition” value does the source give for `O=C(Cc1ccc2c(c1)OCO2)N1CCN(CC2CC2)[C@@H]2CS(=O)(=O)C[C@@H]21` here?
A: The value was -3%.

Q: And the Z score?
A: The Z score was 0.7.

Q: Which results are given for `C[C@@H]1N=C(c2ccccc2)c2cc(Cl)ccc2N(CC(=O)Nc2cccc(C(F)(F)F)c2)C1=O`?
A: % Inhibition: 31%; Z score: -4.17

Q: How did the “% Inhibition” value turn out when `CCc1ccc(NCC(=O)N2CCC3(CC2)OCCO3)cc1F` was run?
A: Its value is -6%.

Q: What about the Z score of the same compound?
A: Its Z score is 1.09.

Q: With `O=c1cccc2n1CC1CC2CN(c2nc(NCC3CCCO3)nc(N3CCCC3)n2)C1` (stereo unspecified) as the compound, how does the “% Inhibition” value read?
A: Its value is 5%.

Q: What about the Z score of the same compound?
A: The Z score was -0.68.

Q: How did the “% Inhibition” value turn out when `O=S(=O)(c1cccs1)N1C[C@@H]2CC[C@H]1CN(Cc1ccccn1)C2` was run?
A: Its value is -11%.

Q: And the Z score?
A: Its Z score is 1.11.

Q: How did the “% Inhibition” value turn out when `CCCCS(CCCC)=C1C(=O)NC(=O)N(CCc2ccc(F)cc2)C1=O` was run?
A: The value was -8%.

Q: What about the Z score of the same compound?
A: Its Z score is 0.88.

Q: What does the source list for `Clc1cccc(CCN[C@H]2CCOC3(CCOCC3)C2)c1`?
A: % Inhibition: 34%; Z score: -1.26

Q: Which “% Inhibition” value does the source give for `O=C1CCC2CN(Cc3ccccc3)CC2C1` (stereo unspecified) here?
A: The value was -6%.

Q: What about the Z score of the same compound?
A: The Z score was 1.18.

Q: Which results are given for `COc1cccc(CN2C[C@H]3CN(C(=O)C(C)C)C[C@@]3(CO)C2)n1`?
A: % Inhibition: -10%; Z score: 1.3

Q: Which results are given for `CC[C@H]1CN(C)CCN1C(=O)Cc1ccc2[nH]c(=O)[nH]c2c1`?
A: % Inhibition: 0%; Z score: 0.07

Q: How did the “% Inhibition” value turn out when `Cc1cccc(CNC(=O)c2cn(CCN3CCNCC3)nn2)c1C` was run?
A: The value was 2%.

Q: And the Z score?
A: The Z score was -0.45.

Q: What does the source list for `Cc1c[nH]c(CN(C)[C@@H](C)Cn2nc(C)cc2C)n1`?
A: % Inhibition: -1%; Z score: 0.2

Q: What does the source list for `O=c1[nH]ncn1C1CCN(C[C@H](O)c2ccc(F)cc2Cl)CC1`?
A: % Inhibition: -7%; Z score: 1.16

Q: Which “% Inhibition” value does the source give for `Cc1ccc2c(c1)CCCN2C(=O)CN1CC=C(c2cnn(C)c2)CC1` here?
A: Its value is 55%.

Q: What about the Z score of the same compound?
A: Its Z score is -3.45.

Q: With `C[C@@H](Cc1ccc(Cl)cc1)N(C)Cc1ccn(C)n1` as the compound, how does the “% Inhibition” value read?
A: The value was -6%.

Q: What about the Z score of the same compound?
A: Its Z score is 0.57.

Q: What does the source list for `N#Cc1cccc(CN2C[C@H]3CCC[C@@H](C3)C2)c1`?
A: % Inhibition: -8%; Z score: 1.6

Q: `CCCNC(=O)CN1C[C@H]1C(=O)NCCC` (stereo partly specified) was tested. Which “% Inhibition” value did it give?
A: The value was -13%.

Q: And the Z score?
A: Its Z score is 1.38.

Q: Which “% Inhibition” value does the source give for `CCOc1ccc(N2C(=O)NC(=O)[C@@]3(Cc4c(ccc5ccccc45)N(C)C3)C2=O)cc1` here?
A: The value was 14%.

Q: And the Z score?
A: The Z score was -2.22.

Q: With `CCN1CC[C@H]2OCCN(C(=O)c3cnc(COC)nc3N)[C@H]2C1` as the compound, how does the “% Inhibition” value read?
A: Its value is -1%.

Q: What about the Z score of the same compound?
A: The Z score was 0.1.

Q: With `O=C1N=C(O)N(CCc2ccccc2)C(=O)C12Cc1ccccc1N1CCCC12` (stereo unspecified) as the compound, how does the “% Inhibition” value read?
A: Its value is -7%.

Q: And the Z score?
A: The Z score was 0.62.

Q: `N=C1c2ccccc2CN1c1cccnc1` was tested. Which “% Inhibition” value did it give?
A: Its value is -10%.

Q: And the Z score?
A: The Z score was 1.36.

Q: Which results are given for `CN1CCC[C@@]2(CCN(Cc3ccc(C(F)(F)F)cn3)C2)C1`?
A: % Inhibition: 2%; Z score: -0.25

Q: How did the “% Inhibition” value turn out when `Cc1nnc(CN(C)CCc2ccc(F)cc2Cl)n1C` was run?
A: The value was -6%.

Q: What about the Z score of the same compound?
A: Its Z score is 0.77.

Q: For `CC(Nc1ccc(C#N)c(Cl)c1)C1CCOC1` (stereo unspecified), which “% Inhibition” value is on record?
A: Its value is -5%.

Q: What about the Z score of the same compound?
A: Its Z score is 1.02.

Q: `O=C(COc1cccc(F)c1)N1C[C@@H]2CC[C@H]1CN(Cc1cscn1)C2` was tested. Which “% Inhibition” value did it give?
A: Its value is -9%.

Q: And the Z score?
A: The Z score was 1.33.

Q: Which “% Inhibition” value does the source give for `COc1ccccc1Cn1cc(C(=O)NCCC(C)C)c(=O)c(C(=O)NC[C@H]2CCCO2)c1` here?
A: The value was -2%.

Q: What about the Z score of the same compound?
A: Its Z score is 0.39.

Q: What does the source list for `Cc1cccc(CC(=O)N2CCC3(CC2)OCCO3)c1`?
A: % Inhibition: 9%; Z score: -1.68

Q: `COc1ccc(-c2cn(C[C@H]3C[C@@H]4CCN3C[C@@H]4C(=O)N3CCOCC3)nn2)cc1` was tested. Which “% Inhibition” value did it give?
A: Its value is -6%.

Q: And the Z score?
A: Its Z score is 0.91.

Q: Which “% Inhibition” value does the source give for `O=C1NC(=O)C(CCc2ccccn2)(CCc2ccccn2)C(=O)N1CCC1=CCCCC1` here?
A: The value was -12%.

Q: And the Z score?
A: Its Z score is 1.35.

Q: With `CCN(CC)C(=O)Oc1ccc2c(ccn2Cc2cc(Cl)cc(Cl)c2)c1-c1ccc(C)cc1` as the compound, how does the “% Inhibition” value read?
A: The value was -11%.

Q: And the Z score?
A: The Z score was 1.96.

Q: `Cc1ccc2ncc(CN3CCN4CCOC[C@]4(CO)C3)cc2c1` was tested. Which “% Inhibition” value did it give?
A: Its value is 1%.

Q: And the Z score?
A: Its Z score is -0.12.

Q: Which “% Inhibition” value does the source give for `Cc1cc(C)cc(OCCn2c(-c3ccccn3)noc2=O)c1` here?
A: The value was -9%.

Q: What about the Z score of the same compound?
A: The Z score was 1.46.

Q: Which “% Inhibition” value does the source give for `CC(C)Cc1cc(CN2CCC3(CC2)CNCCO3)no1` here?
A: The value was -1%.

Q: And the Z score?
A: Its Z score is 0.17.

Q: Which “% Inhibition” value does the source give for `CC12CNCC(C)(CN(Cc3ccccc3)C1)C2` here?
A: Its value is -10%.

Q: And the Z score?
A: The Z score was 1.27.

Q: With `COCCOCC(=O)N1[C@H]2CC[C@@H]1c1cnc(-c3ccc(F)cc3)nc1C2` as the compound, how does the “% Inhibition” value read?
A: Its value is -3%.

Q: And the Z score?
A: The Z score was 0.49.

Q: `Cc1ccc2c(CCN=C(N)N3CCOCC3)cn(C)c2c1` was tested. Which “% Inhibition” value did it give?
A: The value was -3%.

Q: And the Z score?
A: The Z score was 0.61.
